Measured values taken from article doi:10.1101/2023.12.11.571147 (bioRxiv, 2023).

Target: the molecule itself
Test: thioflavin T aggregation assay

B1: Recombinant Htau40ΔK280 (natural protein)
chain: not shown
- binding result: binds
